# Where “and” joins values, the source holds several entries; their conditions need not be identical. Equal values may be shown once.
# Legend:
# MV4-11 cells [1] = assay: MV4-11 subcutaneous model in CB.17 SCID mice (Example 29); format: in vivo, mouse; details: for % T/C (Day 49): single i.v., day 15
# [2] = system: Kasumi-3-Luc-mCh-Puro cells; assay: Kasumi-3-Luc-mCh-Puro disseminated model in NSG mice; details: for Median Survival: i.v. days 7 and 41; for % Tumor Burden Delay (% TBD): designated BLI = vehicle group at day 45
# MOLM-1 cells = assay: In vitro cytotoxicity assay (WST-8), MOLM-1; details: read-out: huCD123-CysMab-D5 IC50 pMol; MOLM-1, MDR1 and EVI1 OX
# Molm-13 cells = assay: Molm-13 disseminated model in athymic nude mice; format: in vivo, mouse; details: for Median Survival Time: single i.v., day 7
# Namalwa cells = assay: In vitro cytotoxicity assay, Namalwa (CD123 negative); format: cell-based, human; details: read-out: huCD123-CysMab-D5 IC50 pMol
# UCSD-AML1 cells = assay: In vitro cytotoxicity assay, UCSD-AML1; format: cell-based, human; details: UCSD-AML1, EVI OX; read-out: huCD123-CysMab-D5 IC50 pMol
# KO52 cells = assay: In vitro cytotoxicity assay (WST-8), KO52; format: cell-based, human; details: read-out: huCD123-CysMab-D5 IC50 pMol
# THP1 cells = assay: In vitro cytotoxicity assay (WST-8), THP1; format: cell-based, human; details: THP-1, P53; read-out: huCD123-CysMab-D5 IC50 pMol
# HNT-34 cells = assay: In vitro cytotoxicity assay (WST-8), HNT-34; details: read-out: huCD123-CysMab-D5 IC50 pMol; HNT-34, EVI1 OX
# KASUMI-3 cells = assay: In vitro cytotoxicity assay (WST-8), KASUMI-3; format: cell-based, human; details: KASUMI-3, P53 and MDR1; read-out: huCD123-CysMab-D5 IC50 pMol
# EOL-1 cells [3] = assay: EOL-1 subcutaneous model in athymic nude mice, first study; format: in vivo, mouse
# [4] = biological target: T1, CD123-expressing HNT-34 cells (Homo sapiens, UniProt P26951); assay: Flow cytometry binding to HNT-34 cells; details: FIGS. 7B and 7C
# T1 construct: endogenous in cells; host or cells: HNT-34 (acute myeloid leukemia cell line)
# T1 sequence (P26951 19-378): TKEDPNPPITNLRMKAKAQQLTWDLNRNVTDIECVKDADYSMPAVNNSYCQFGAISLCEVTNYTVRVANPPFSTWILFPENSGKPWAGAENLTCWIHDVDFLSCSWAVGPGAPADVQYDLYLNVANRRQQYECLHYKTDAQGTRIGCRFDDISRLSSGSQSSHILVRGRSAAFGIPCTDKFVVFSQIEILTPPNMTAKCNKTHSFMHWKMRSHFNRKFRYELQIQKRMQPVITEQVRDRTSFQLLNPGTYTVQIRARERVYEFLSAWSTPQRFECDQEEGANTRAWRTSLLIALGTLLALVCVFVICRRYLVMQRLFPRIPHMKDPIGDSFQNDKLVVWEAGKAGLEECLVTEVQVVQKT
# Experimental: Binding affinity was tested by flow cytometry using purified antibodies. […] TF-1 cells (5×10^4 cells per sample) were incubated with varying concentrations of murine antibodies in 200 μL FACS buffer (DMEM medium supplemented with 2% normal goat serum). The cells were then pelleted, washed twice, and incubated for 1 hr with 100 μL of phycoerythrin (PE)-conjugated goat anti-mouse IgG-antibody (Jackson Laboratory). The cells were pelleted again, washed with FACS buffer and resuspended in 200 μL of PBS containing 1% formaldehyde. Samples were acquired using a FACSCalibur flow cytometer with the HTS multiwell sampler, or a FACS array flow cytometer, and analyzed using CellQuest Pro (all from BD Biosciences, San Diego, US). For each sample the geomean fluorescence intensity for FL2 was calculated and plotted against the antibody concentration in a semi-log plot. A dose-response curve was generated by non-linear regression and the EC50 value of each curve, which corresponds to the apparent dissociation constant (Kd) of each antibody, was calculated using GraphPad Prism v4 (GraphPad software, San Diego, CA).
# FIG. 5A depicts the dose-response curves for each antibody. The value for the apparent dissociation constant (Kd) of each antibody was calculated using GraphPad Prism v4 (GraphPad software, San Diego, CA).
# FIGS. 7B and 7C depict the dose-response curves for each antibody and the corresponding conjugates.
# AML progenitor cells = assay: In vitro cytotoxicity on AML patient samples (AML progenitor cells); format: cell-based, human; details: unselected AML patient samples, FIG. 18
# MV4-11 cells [5] = assay: In vitro cytotoxicity assay (WST-8), MV4-11; format: cell-based, human; details: MV4-11, FLT/ITD; read-out: huCD123-CysMab-D5 IC50 pMol
# EOL-1 cells [6] = assay: EOL-1 subcutaneous model in athymic nude mice, third study; details: 3 μg/kg by D5
# EOL-1 cells [7] = assay: EOL-1 subcutaneous model in athymic nude mice, second study; format: in vivo, mouse
# [8] = 3 μg/kg D5 (0.240 mg/kg huCD123)
# [9] = 10 μg/kg D5 (0.80 mg/kg antibody)
molecule,measurement,setting,value
huCD123-CysMab-D5 (conjugate) heavy: QVQLVQSGAEVKKPGASVKVSCKASGYIFTSSIMHWVRQAPGQGLEWIGYIKPYNDGTKYNEKFKGRATLTSDRSTSTAYMELSSLRSEDTAVYYCAREGGNDYYDTMDYWGQGTLVTVSS[here human IgG1 constant region with changes without letters] light: DIQMTQSPSSLSASVGDRVTITCRASQDINSYLSWFQQKPGKAPKTLIYRVNRLVDGVPSRFSGSGSGNDYTLTISSLQPEDFATYYCLQYDAFPYTFGQGTKVEIKRTVAAPSVFIFPPSDEQLKSGTASVVCLLNNFYPREAKVQWKVDNALQSGNSQESVTEQDSKDSTYSLSSTLTLSKADYEKHKVYACEVTHQGLSSPVTKSFNRGEC,CR,MV4-11 cells [1]; 0.3 μg/kg by payload,0/6
same,PR,MV4-11 cells [1]; 0.3 μg/kg by payload,0/6
same,Result,MV4-11 cells [1]; 0.3 μg/kg by payload,Inactive
same,% T/C (Day 49),MV4-11 cells [1]; 0.3 μg/kg by payload,69%
same,CR,MV4-11 cells [1]; 1 μg/kg by payload,5/6
same,PR,MV4-11 cells [1]; 1 μg/kg by payload,5/6
same,% T/C (Day 49),MV4-11 cells [1]; 1 μg/kg by payload,0%
same,CR,MV4-11 cells [1]; 3 μg/kg by payload,6/6
same,PR,MV4-11 cells [1]; 3 μg/kg by payload,6/6
same,% T/C (Day 49),MV4-11 cells [1]; 3 μg/kg by payload,0%
same,% ILS,[2]; [8],50%
same,T-C,[2]; [8],35
same,Median Survival,[2]; [8],105 days
same,% T/C (median BLI),"[2]; 3 μg/kg by D5, day 27",0.25%
same,% Tumor Burden Delay (% TBD),[2]; 3 μg/kg by D5,> 65%
same,% ILS,[2]; [9],64%
same,T-C,[2]; [9],45
same,Median Survival,[2]; [9],115 days
same,% T/C (median BLI),"[2]; 10 μg/kg by D5, day 27",0.20%
same,% Tumor Burden Delay (% TBD),[2]; 10 μg/kg by D5,> 75%
same,mice with extended survival as compared to control,[2]; both 3 μg/kg and 10 μg/kg doses,6/6
same,IC50,MOLM-1 cells,0.12 nM
same,% ILS,Molm-13 cells; 0.1 μg/kg by payload,> 262.5% and 262.5%
same,"Tumor Growth Delay (T-C, Days)",Molm-13 cells; 0.1 μg/kg by payload,73.5 days
same,Median Survival Time,Molm-13 cells; 0.1 μg/kg by payload,101.5 days
same,% ILS,Molm-13 cells; 0.3 μg/kg by payload,> 262.5%
same,"Tumor Growth Delay (T-C, Days)",Molm-13 cells; 0.3 μg/kg by payload,>73.5 days
same,Median Survival Time,Molm-13 cells; 0.3 μg/kg by payload,>101.5 days
same,% ILS,Molm-13 cells; 1 μg/kg by payload,> 262.5%
same,"Tumor Growth Delay (T-C, Days)",Molm-13 cells; 1 μg/kg by payload,>73.5 days
same,Median Survival Time,Molm-13 cells; 1 μg/kg by payload,>101.5 days
same,IC50,Namalwa cells,10 nM
same,IC50,UCSD-AML1 cells,0.001 nM
same,IC50,KO52 cells,0.02 nM
same,IC50,THP1 cells,0.03 nM
same,IC50,HNT-34 cells,0.001 nM
same,IC50,KASUMI-3 cells,0.003 nM
same,CR,EOL-1 cells [3]; 1 μg/kg by payload,3/6
same,PR,EOL-1 cells [3]; 1 μg/kg by payload,3/6
same,Result,EOL-1 cells [3]; 1 μg/kg by payload,Active
same,% T/C (Day 15),"EOL-1 cells [3]; 1 μg/kg by payload, single i.v., day 7",13%
same,CR,EOL-1 cells [3]; 3 μg/kg by payload,5/6
same,PR,EOL-1 cells [3]; 3 μg/kg by payload,5/6
same,effect of conjugation on binding affinity versus unconjugated antibody,[4],only moderately affected the binding affinities
same,"activity, fold higher than Mylotarg",AML progenitor cells,74 fold
same,IC50,MV4-11 cells [5],0.001 nM
same,CR,EOL-1 cells [6],8/8
same,PR,EOL-1 cells [6],8/8
same,CR,EOL-1 cells [7]; 0.5 μg/kg by D5,3/6
same,PR,EOL-1 cells [7]; 0.5 μg/kg by D5,3/6
same,Result,EOL-1 cells [7]; 0.5 μg/kg by D5,Active
same,% T/C (Day 16),"EOL-1 cells [7]; 0.5 μg/kg by D5, single i.v., day 7",11%
same,CR,EOL-1 cells [7]; 1 μg/kg by D5,6/6
same,PR,EOL-1 cells [7]; 1 μg/kg by D5,6/6
